{
  "source": "the supplement of paper PMC10338343",
  "note": "± gives the standard deviation. In all, about 5,500 sequences were measured (“pre-steady-state target cleavage rate”: median about 0.1, highest 2% from about 0.64 on). Only a part is listed here, and it is no random draw.",
  "data": [
    {"test_system": "MIWI (PIWIL1) piRISC loaded with piRNA #2 (30 nt)", "assay": "pre-steady-state target cleavage rate (min^-1); MIWI and MILI are mouse PIWI proteins and EfPiwi is from a freshwater sponge; tags in brackets are library labels; higher = faster piRNA-guided slicing of the target", "settings": "guide: piRNA #2 5'p-UUAGGUAACCCAGUAGAUCCAGAGGAAUUC; auxiliary factor: 500 nM mouse GTSF1", "method_in_brief": "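The pre-steady-state cleavage rate was obtained by Cleave-'n-Seq with a burst-and-steady-state fit. A transcribed, DNA-blocked target RNA library (0.1 nM) was mixed with 1 nM active affinity-purified piRISC carrying one synthetic guide, with or without 500 nM GTSF1 partner protein, in HEPES–potassium acetate buffer at 33 °C for 0–8 or 0–960 min. Uncleaved targets were sequenced and normalised to depth and to weakly complementary targets, with three trials pooled and k3 capped at 0.0001 min^-1.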", "values": [
      {"sequence": "CUAUUCGUCUGGAUCUACAGGGUUACCUAA", "pre-steady-state target cleavage rate": "0.164 ± 0.02"},
      {"sequence": "CUUAAGCACUGGAUCUUCUGGGUUACCUAA", "pre-steady-state target cleavage rate": "0.227 ± 0.03"},
      {"sequence": "CUUAUCCUCUGGCUCUACUGGGUUACCUAA", "pre-steady-state target cleavage rate": "0.574 ± 0.039"},
      {"sequence": "CUAUUCCUCUGGAUCUUCUGGCUUACCUAA", "pre-steady-state target cleavage rate": "0.0185 ± 0.0076"},
      {"sequence": "CUUAUCCUCUGGAUCGACUGGGUUACCUAA", "pre-steady-state target cleavage rate": "0.255 ± 0.037"},
      {"sequence": "CUUAAGCUCUGGAUGUACUGGGUUACCUAA", "pre-steady-state target cleavage rate": "0.182 ± 0.023"},
      {"sequence": "GAAUUCCUCUGGAUCUACAGGGUUACCUAA", "pre-steady-state target cleavage rate": "0.186 ± 0.024"},
      {"sequence": "CUUAAGGACUGGAUCUACAGGGUUACCUUA", "pre-steady-state target cleavage rate": "0.0472 ± 0.011"},
      {"sequence": "CAAUUCCUCUGGAUCUACUGGCUUACCUAA", "pre-steady-state target cleavage rate": "0.103 ± 0.019"},
      {"sequence": "CUUAUCCUCUGGAUCUACUGGCUUAGCUAA", "pre-steady-state target cleavage rate": "0.00734 ± 0.004"},
      {"sequence": "CUUAACCUCUCGAUCUACUGGGUUACGUAA", "pre-steady-state target cleavage rate": "0.551 ± 0.037"},
      {"sequence": "CAAUACCUGUGGAUCUACUGGGUUACCUAA", "pre-steady-state target cleavage rate": "0.344 ± 0.04"},
      {"sequence": "CUUAAGGAGAGGCUCUACUGGGUUACCUAA", "pre-steady-state target cleavage rate": "0.0146 ± 0.0025"},
      {"sequence": "CUUUUCCACUGGAUCUAGUGGGUUACCUAA", "pre-steady-state target cleavage rate": "0.208 ± 0.02"},
      {"sequence": "CUUAAGCUCUGGAUCUACUGGGUUACCAAA", "pre-steady-state target cleavage rate": "0.155 ± 0.025"},
      {"sequence": "CAAUUCCUCUGGAUCUACUGGGAUACGUAA", "pre-steady-state target cleavage rate": "0.245 ± 0.07"},
      {"sequence": "CUUAAGGAGAGGAUCUACUGGGUUAACUAA", "pre-steady-state target cleavage rate": "0.00944 ± 0.0055"},
      {"sequence": "CUUAUCCUCUGGAUAUACUGGGUUACCUAA", "pre-steady-state target cleavage rate": "0.688 ± 0.052"},
      {"sequence": "CUAUUCCUCUGGAUCUACUGGGAUACGUAA", "pre-steady-state target cleavage rate": "0.258 ± 0.044"},
      {"sequence": "CAAUUCCUGUGGAACUACUGGGUUACCUAA", "pre-steady-state target cleavage rate": "0.261 ± 0.068"},
      {"sequence": "CAAUUCCUCUGGAUCUACUGGGUUUCCUUA", "pre-steady-state target cleavage rate": "0.281 ± 0.067"},
      {"sequence": "CUUAAGGAGAGGAUCUACUGGGUUGACCUAA", "pre-steady-state target cleavage rate": "0.00872 ± 0.005"},
      {"sequence": "GAAUUCCUCUGGUUGUACUGGGUUACCUAA", "pre-steady-state target cleavage rate": "0.557 ± 0.032"},
      {"sequence": "CUUAAGGUCUGGAUACUACUGGGUUACCUAA", "pre-steady-state target cleavage rate": "0.0967 ± 0.026"},
      {"sequence": "CUUAAGCACUGGAACUACUGGGUUACCUAA", "pre-steady-state target cleavage rate": "0.326 ± 0.038"},
      {"sequence": "CUUAAGGUGUGGAUCUACUGGGUUACCUAA", "pre-steady-state target cleavage rate": "0.216 ± 0.041"},
      {"sequence": "CUUAACCUCUGGAUCUACUGGCAUACCUAA", "pre-steady-state target cleavage rate": "0.00495 ± 0.0029"},
      {"sequence": "CUUAACCACUGGAUCUACUGGGAUACCUAA", "pre-steady-state target cleavage rate": "0.276 ± 0.026"},
      {"sequence": "CUUUUCCUCUGGAUCUAGUGGGUUACGUAA", "pre-steady-state target cleavage rate": "0.228 ± 0.022"},
      {"sequence": "CUUAACCUCUGGAUCUACUGGGUUGCCUAA", "pre-steady-state target cleavage rate": "0.197 ± 0.023"},
      {"sequence": "CUUAAGCUCUGGAUCUACACCGUUACCUAA", "pre-steady-state target cleavage rate": "0.0395 ± 0.0086"},
      {"sequence": "CUUUACCUCUGGAUCUACAGGGUUACCUAA", "pre-steady-state target cleavage rate": "0.182 ± 0.018"},
      {"sequence": "CUUAAGCUCUCGAUGUACUGGGUUACCUAA", "pre-steady-state target cleavage rate": "0.509 ± 0.036"},
      {"sequence": "CUAUUCCUCUGGUAGUACUGGGUUACCUAA", "pre-steady-state target cleavage rate": "0.232 ± 0.036"},
      {"sequence": "CUUAACCUCUGGAACUACAGGGUUACCUAA", "pre-steady-state target cleavage rate": "0.254 ± 0.019"},
      {"sequence": "CAAUUCCUCUGGAUCUAGUGGGUUUCCUAA", "pre-steady-state target cleavage rate": "0.133 ± 0.026"},
      {"sequence": "CUUAUCGAGUGGAUCUACUGGGUUACCUAA", "pre-steady-state target cleavage rate": "0.228 ± 0.022"},
      {"sequence": "GAAAUCCUCUGGAUCUACUGGGUUACCUAA", "pre-steady-state target cleavage rate": "0.249 ± 0.058"},
      {"sequence": "CUUUUCCUCAGGAUCUAGUGGGUUACCUAA", "pre-steady-state target cleavage rate": "0.16 ± 0.025"},
      {"sequence": "CAAUACCUCUGGAUCUACUGGGUUUCCUAA", "pre-steady-state target cleavage rate": "0.295 ± 0.047"},
      {"sequence": "CAAUUCGUCUGGAUCAACUGGGUUACCUAA", "pre-steady-state target cleavage rate": "0.239 ± 0.041"},
      {"sequence": "CUUAAGGUCUGGAUCUACUGGGCUACCUAA", "pre-steady-state target cleavage rate": "0.0794 ± 0.018"},
      {"sequence": "CUUAUCCUCUGGAUCAACUGGGUUACCUAA", "pre-steady-state target cleavage rate": "0.342 ± 0.039"},
      {"sequence": "CUUAAGCUCUGGAUCUAGUGGGUUACCUAA", "pre-steady-state target cleavage rate": "0.0522 ± 0.0082"},
      {"sequence": "CUUAACCUGUGGAUCUACUGGGUUACCUAA", "pre-steady-state target cleavage rate": "0.37 ± 0.022"},
      {"sequence": "CUUAUCCUCUCGAUCUACUGGGUUUCCUAA", "pre-steady-state target cleavage rate": "0.32 ± 0.042"},
      {"sequence": "CUUAACCUCUGGAUCUAGUGGGUUACCAAA", "pre-steady-state target cleavage rate": "0.0597 ± 0.0073"},
      {"sequence": "CUUAAGGAGUGAUCUACUGGGUUACCUAA", "pre-steady-state target cleavage rate": "0.00412 ± 0.0023"},
      {"sequence": "GAAUUCCUCUGGAUCUACUGGGAUAGCUAA", "pre-steady-state target cleavage rate": "0.195 ± 0.038"},
      {"sequence": "CUUAAGGUCUGGAUGUACUGGGUUAGCUAA", "pre-steady-state target cleavage rate": "0.0622 ± 0.034"},
      {"sequence": "CUUAAGGUCUGGAUCUACUGGGUUAUCCUAA", "pre-steady-state target cleavage rate": "0.305 ± 0.034"},
      {"sequence": "CUUAAGCUCACCAUCUACUGGGUUACCUAA", "pre-steady-state target cleavage rate": "0.0189 ± 0.0049"},
      {"sequence": "CAUUUCCUCUGGAUCUACUGGGUUACCUUA", "pre-steady-state target cleavage rate": "0.441 ± 0.066"},
      {"sequence": "CUUAAGGAGUGGAUCUACUGGCUUACCUAA", "pre-steady-state target cleavage rate": "0.0208 ± 0.012"},
      {"sequence": "CUUAUCCAUCUGGAUCUACUGGGUUACCUAA", "pre-steady-state target cleavage rate": "0.508 ± 0.051"},
      {"sequence": "CUUAAGGUCUGGAUCUACUGGGUUACGUAA", "pre-steady-state target cleavage rate": "0.462 ± 0.041"},
      {"sequence": "CUUAAGGAGAGGAUCUACUGGGUUACCUUAA", "pre-steady-state target cleavage rate": "0.00691 ± 0.0049"},
      {"sequence": "CUUAUCCUCUGGAUCUAGUGGGUUAGCUAA", "pre-steady-state target cleavage rate": "0.0415 ± 0.011"},
      {"sequence": "CUUAUCCUCUGGAACUAGUGGGUUACCUAA", "pre-steady-state target cleavage rate": "0.167 ± 0.021"},
      {"sequence": "CUUAAGGACCUGGAUCUACUGGGUUACCUAA", "pre-steady-state target cleavage rate": "0.0827 ± 0.017"},
      {"sequence": "CUUAAGGACUGGAUCUACUGGGUUACCAA", "pre-steady-state target cleavage rate": "0.019 ± 0.018"},
      {"sequence": "CUAUUCUUCUGGAUCUACUGGGUUACCUAA", "pre-steady-state target cleavage rate": "0.434 ± 0.035"},
      {"sequence": "CUUAUCCUCUGGUACUACUGGGUUACCUAA", "pre-steady-state target cleavage rate": "0.364 ± 0.044"},
      {"sequence": "CUUAAGGUCUGGAUCUAGUGGGUUACCAAA", "pre-steady-state target cleavage rate": "0.0464 ± 0.011"},
      {"sequence": "CUUAAGGAGAGCAUCUACUGGGUUACGUAA", "pre-steady-state target cleavage rate": "0.00371 ± 0.0022"},
      {"sequence": "GAAUACCUCUGGAUCUUCUGGGUUACCUAA", "pre-steady-state target cleavage rate": "0.273 ± 0.048"},
      {"sequence": "CUUUUCCUCUGGAUCUAGUCGGUUACCUAA", "pre-steady-state target cleavage rate": "0.00647 ± 0.0032"},
      {"sequence": "CUUAUCCUUCUGGAUCUACUGGGUUACCUAA", "pre-steady-state target cleavage rate": "0.499 ± 0.052"},
      {"sequence": "CUUUUCCUCUGGAAGAACUGGGUUACCUAA", "pre-steady-state target cleavage rate": "0.121 ± 0.031"},
      {"sequence": "CAUUUCCUCUGGAUGUACUGGGUUACCUAA", "pre-steady-state target cleavage rate": "0.514 ± 0.056"},
      {"sequence": "CUUUACCUCUGGAUCUACUGGGUUACCUUA", "pre-steady-state target cleavage rate": "0.167 ± 0.025"},
      {"sequence": "GAAUUCCUCUCGAACUACUGGGUUACCUAA", "pre-steady-state target cleavage rate": "0.47 ± 0.046"},
      {"sequence": "CUUAAGCUCUGGAUCAACUGCGUUACCUAA", "pre-steady-state target cleavage rate": "0.206 ± 0.027"}
    ]}
  ]
}
